In the data set the test system is ATP. Nature of the data set: switch fluorescence ratio, 500 uM ATP over buffer (Cy3 cluster intensity, sum of 5 cycles each) (fold (ratio)); higher = stronger signal-on switching upon ATP binding; sequences stand for … in TCGTCGGCAGCGTCAGATGTGTATAAGAGACAGTTTTTTTTTTTTTTTTTTTTTTTTT…TC. As to conditions: aptamer strand: ATP DNA aptamer (quencher-CACCTGGGGGAGTATTGCGGAGGAAGG + anchor), 100 nM annealed; ATP concentration: 500 uM; one replicate. In short, it runs like this:
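Between each of five buffer/ATP cycles, the flow-cell was stripped with NaOH and re-annealed. Each cycle imaged Cy3-labelled switching-strand clusters, annealed to 100 nM quencher-labelled ATP aptamer on a modified Illumina MiSeq flow-cell, first in selection buffer and then after 15 min with 500 uM ATP at 22 °C. The fluorescence ratio is summed target-cycle over summed buffer-cycle Cy3 intensity per cluster, averaged per switch-domain sequence, with clusters outside 100-1000 RFU excluded.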

Values marked as one replicate rest on one cluster of the flow cell; about a third of the high ones do not repeat.
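Also: ATP exposure 15 min at 22 °C before imaging.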

Take TGATGCTGCG: the switch fluorescence ratio was 1.02.

Consider AAGAATCAAG, for which the switch fluorescence ratio was 0.994.

On to ACTGGAAACA, for which the switch fluorescence ratio is 1.01.

Turning to TCACGGTCGC, the switch fluorescence ratio was found to be 0.955.

Take GCGAGGTGGA: the switch fluorescence ratio was found to be 1.01.

As for GTTGACGTTC, the switch fluorescence ratio was 0.995.

Consider AAACTCAGGT, for which the switch fluorescence ratio was determined as 1.34.

As to AGTCTTGTGA, the switch fluorescence ratio came to 1.05.

For the sequence GGGTGTGACA, the switch fluorescence ratio was 0.969.

As for AATTCGTCTA, the switch fluorescence ratio came out at 0.986.

Consider AAGTTAAACG, for which the switch fluorescence ratio came to 1.

On to ACGGTACCCA, for which the switch fluorescence ratio worked out at 1.42.

For the sequence TCCAGCGTCC, the switch fluorescence ratio came out at 1.14.

On to TAGGTGTACA, for which the switch fluorescence ratio is 1.02.

As for TATGCCTGTA, the switch fluorescence ratio was determined as 1.09.

In the case of TGACTGGGTG, the switch fluorescence ratio stood at 0.936.

Regarding AGGCTCTTGC, the switch fluorescence ratio worked out at 0.976.

For CAAGCCAACG, the switch fluorescence ratio came to 1.01.

For GCGTAGTGGT, the switch fluorescence ratio was determined as 0.978.

TGACCACC: the switch fluorescence ratio was 1.21.

As for TCACAGTACG, the switch fluorescence ratio turned out to be 1.41.

With TCGTGTCCCG, the switch fluorescence ratio came out at 1.01.

Consider GGAACCCTGA, for which the switch fluorescence ratio was found to be 1.02.

ACCTTGTGGG: the switch fluorescence ratio came to 1.01.

In the case of GTAGTCATGC, the switch fluorescence ratio turned out to be 1.27.

For the sequence AGAAGATGAT, the switch fluorescence ratio amounted to 1.02.

For the sequence TAGTAACGGA, the switch fluorescence ratio stood at 0.991.

Regarding TGATATACTT, the switch fluorescence ratio came out at 1.12.

AATCTTGCTT: the switch fluorescence ratio was determined as 1.04.

With TAGATCAGCC, the switch fluorescence ratio turned out to be 0.993.

For the sequence AAATTATGCA, the switch fluorescence ratio was 0.982.

Turning to GCGTTTTAAT, the switch fluorescence ratio is 1.01.

Take CAATATGTAC: the switch fluorescence ratio worked out at 1.11.

Consider CAATTCTGGG, for which the switch fluorescence ratio came out at 0.971.

As for TATTTGGGAA, the switch fluorescence ratio was found to be 1.02.

With AGGAAAGAAG, the switch fluorescence ratio came out at 1.

Regarding GGGGCTCTTA, the switch fluorescence ratio came to 0.966.

Regarding AAATCCGTGG, the switch fluorescence ratio turned out to be 0.967.

Consider CGTAAGTTGT, for which the switch fluorescence ratio was found to be 0.994.

CTCACCCGGC: the switch fluorescence ratio was 1.65.

For the sequence AGGAGGTAGT, the switch fluorescence ratio came out at 0.989.

Consider TATTAAGCTC, for which the switch fluorescence ratio was determined as 0.977.

As to CAGCTGCCGT, the switch fluorescence ratio came to 0.995.

As for GTCCTGCCTA, the switch fluorescence ratio is 1.03.

On to AGTGTTCTGC, for which the switch fluorescence ratio worked out at 1.12.

GTGGATGGGT: the switch fluorescence ratio is 0.952.

Turning to CTGTGGGGTT, the switch fluorescence ratio came to 1.03.

With ATAGCTCCAC, the switch fluorescence ratio was determined as 1.08.

As to CCTGATTCAT, the switch fluorescence ratio came out at 1.02.

Consider ATTTGGCCTT, for which the switch fluorescence ratio was 1.03.

As for ACAAACTGGC, the switch fluorescence ratio stood at 1.11.

On to TATGCTAGAC, for which the switch fluorescence ratio worked out at 1.43.

Regarding ATCTCTTTGT, the switch fluorescence ratio turned out to be 0.997.

For the sequence CGCTCAACGC, the switch fluorescence ratio was determined as 1.04.

CTTTTAACCG: the switch fluorescence ratio came to 1.05.

As to GATTGCGATT, the switch fluorescence ratio worked out at 1.03.

On to ACGGCATCAC, for which the switch fluorescence ratio was 1.3.

Regarding GATCCCGGCG, the switch fluorescence ratio was found to be 1.06.

Take ACATCGTTGC: the switch fluorescence ratio was determined as 1.

Take TACACCACTT: the switch fluorescence ratio stood at 1.3.

As to CAGAAATAGG, the switch fluorescence ratio was 1.02.

Regarding ATGCGGTCAG, the switch fluorescence ratio was determined as 0.993.

ATTAGCGAGG: the switch fluorescence ratio is 1.03.

Regarding TAGGTTAGAC, the switch fluorescence ratio was 0.978.

Regarding CGTGTCTCCC, the switch fluorescence ratio stood at 1.3.

As to TTATATGCTT, the switch fluorescence ratio came to 0.995.

On to GCTTTGAAGC, for which the switch fluorescence ratio was 0.952.

As for GTGTAGTAGC, the switch fluorescence ratio was found to be 1.03.

Regarding TATGTTACT, the switch fluorescence ratio is 1.02.

Take GGTTTCATA: the switch fluorescence ratio amounted to 1.01.

For CGCGTATGG, the switch fluorescence ratio was 1.06.

On to ACCAGTATGA, for which the switch fluorescence ratio is 1.06.

For ATGCGAATTC, the switch fluorescence ratio worked out at 1.03.

GGGCGCGA: the switch fluorescence ratio worked out at 1.02.

Take ATGAACTTTA: the switch fluorescence ratio came to 1.02.

Regarding CATAGGCTTG, the switch fluorescence ratio is 0.973.

Consider TTTTACACAC, for which the switch fluorescence ratio came out at 1.43.

Regarding ATTTGTTGTA, the switch fluorescence ratio amounted to 0.964.

In the case of GCTGTGCATC, the switch fluorescence ratio is 1.05.

Regarding GTGAGTTTGA, the switch fluorescence ratio came out at 0.993.

For GCGCAAAATC, the switch fluorescence ratio was 2.34.

In the case of GCTAGTTACT, the switch fluorescence ratio worked out at 0.99.

For the sequence TCTCATGGCT, the switch fluorescence ratio was found to be 0.983.

ATCGGTGCG: the switch fluorescence ratio amounted to 1.02.

Take GGGTTCATAA: the switch fluorescence ratio is 0.968.

AAGTGAGGCG: the switch fluorescence ratio was 0.99.

With TAAGTGTAT, the switch fluorescence ratio stood at 1.02.

As for TCATGATCGC, the switch fluorescence ratio turned out to be 1.01.

With CATATTCGGG, the switch fluorescence ratio was determined as 1.01.

As to CCCGCCGT, the switch fluorescence ratio came to 1.09.

As to GTAGGAAGG, the switch fluorescence ratio was determined as 0.984.

Consider AGTGGTGAAC, for which the switch fluorescence ratio was 1.03.

For the sequence GAGAGGGCGT, the switch fluorescence ratio is 1.

Regarding TGCTGCCTT, the switch fluorescence ratio came to 1.04.

On to AACCTTTTGT, for which the switch fluorescence ratio is 1.02.

For TTATGCCCGA, the switch fluorescence ratio was found to be 1.

On to TTGGGAGACC, for which the switch fluorescence ratio amounted to 0.997.

For the sequence AATTGAGGGT, the switch fluorescence ratio came to 1.06.

Take TCGCGGGAGT: the switch fluorescence ratio is 0.97.

On to ATTGGAGCAT, for which the switch fluorescence ratio was determined as 1.17.

Consider CGCGCTCCCA, for which the switch fluorescence ratio is 3.79.

For TAGAATTAGC, the switch fluorescence ratio was determined as 0.963.

Turning to CGATATGTGC, the switch fluorescence ratio was determined as 1.02.

As to AGATGGTAGC, the switch fluorescence ratio worked out at 1.

With TATGGACGCT, the switch fluorescence ratio was 1.16.

As for GATTTGAAAG, the switch fluorescence ratio stood at 0.935.

CCCTAGAATG: the switch fluorescence ratio stood at 1.03.

On to TATGATGTAT, for which the switch fluorescence ratio turned out to be 1.01.

As for GACTTTCGTA, the switch fluorescence ratio worked out at 1.03.

Take CTCATATGTG: the switch fluorescence ratio is 1.01.

Consider TTTTATACTC, for which the switch fluorescence ratio amounted to 1.25.

Consider GAGCGGTCTG, for which the switch fluorescence ratio came to 1.02.

As to GGCCGAAAAC, the switch fluorescence ratio came to 1.

As to GCTTGGTGAG, the switch fluorescence ratio came to 0.978.

For GCCAGTTTTC, the switch fluorescence ratio is 0.93.

Regarding TGTCGCGTCT, the switch fluorescence ratio worked out at 1.03.

With GGTGACACAC, the switch fluorescence ratio stood at 1.13.

For the sequence GGGTGGGCTG, the switch fluorescence ratio was determined as 0.933.

In the case of ACTGACTTAG, the switch fluorescence ratio was found to be 1.11.

As to TAAAGAGGTT, the switch fluorescence ratio was found to be 1.26.

Source of the values: the supplement of paper PMC10126150.
